We go through 65 compounds from patent US20060135770A1, “PARP inhibitors” (Kudos Pharmaceuticals Ltd., priority 2004, published 2006).

Structures are written as SMILES.

In one assay the target is Mammalian PARP, isolated from Hela cell nuclear extract (Homo sapiens, UniProt P09874). Nature of the assay: PARP inhibition FlashPlate assay (3H-NAD incorporation, scintillation counting). In kind it is biochemical.
Settings: not given
As for the experimental part: In order to assess the inhibitory action of the compounds, the following assay was used to determine IC50 values or percentage inhibition at a given concentration.
The total assay volume per well was 40 μl.
After 10 minutes incubation at 30° C. the reactions were initiated by the addition of a 10 μl reaction mixture, containing NAD (5 μM), ^3H-NAD and 30mer double stranded DNA-oligos. Designated positive and negative reaction wells were done in combination with compound wells (unknowns) in order to calculate % enzyme activities. The plates were then shaken for 2 minutes and incubated at 30° C. for 45 minutes.
Following the incubation, the reactions were quenched by the addition of 50 μl 30% acetic acid to each well. The plates were then shaken for 1 hour at room temperature.
The plates were transferred to a TopCount NXT (TRADE MARK) (Packard, UK) for scintillation counting. Values recorded are counts per minute (cpm) following a 30 second counting of each well.
The % enzyme activity for each compound is then calculated using the following equation: [formula] […] Such IC50 values are used as comparative values to identify increased compound potencies.
As to `NC(=O)c1ccccc1OCCc1ccc(F)c(C(=O)N2CCN(C(=O)c3ccc4c(c3)OCO4)CC2)c1` [Compound 190], the IC50 was under 1000 nM.

Still in this assay, the particulars now being: PARP enzyme activity; NAD 5 μM; 30° C.; read-out: IC50.
Turning to `CC(C)(C)CCNC(=O)c1cccc(COc2ccccc2C(N)=O)c1` [Compound 5], the half-maximal inhibitory concentration (IC50) is under 10000 nM.
`CC(C)CCNC(=O)c1cccc(COc2ccccc2C(N)=O)c1` [Compound 6]: the IC50 is under 10000 nM.
As to `NC(=O)c1ccccc1OCc1cccc(C(=O)NCCN2CCCCC2)c1` [Compound 8], the concentration for half-maximal inhibition (IC50) was under 10000 nM.
The same measure, in the same setting: with `NC(=O)c1ccccc1OCc1cccc(C(=O)NC2CCCCC2)c1` [Compound 9] the figure was under 10000 nM.
Still for that read-out and setting: with `NC(=O)c1ccccc1OCc1cccc(C(=O)NC2=NCCS2)c1` [Compound 10] the figure was under 10000 nM.
On the same count and under the same terms, with `NC(=O)c1ccccc1OCc1cccc(C(=O)NCC2CCCO2)c1` (centres unmarked) [Compound 12] the figure was under 10000 nM.
As for `CCCCNC(=O)c1cccc(COc2ccccc2C(N)=O)c1` [Compound 13], the IC50 was under 10000 nM.
Take `CCCNC(=O)c1cccc(COc2ccccc2C(N)=O)c1` [Compound 14]: the IC50 was under 10000 nM.
The same measure, in the same setting: with `NC(=O)c1ccccc1OCc1cccc(C(=O)NCc2ccco2)c1` [Compound 15] the figure was under 1000 nM; with `CC(C)NC(=O)c1cccc(COc2ccccc2C(N)=O)c1` [Compound 17], under 10000 nM.
The same measure, in the same setting: with `CN(C)CCNC(=O)c1cccc(COc2ccccc2C(N)=O)c1` [Compound 18] the figure was under 10000 nM; with `CC(C)NC(=O)N1CCN(C(=O)c2cccc(COc3ccccc3C(N)=O)c2)CC1` [Compound 26], under 1000 nM.
Still for that read-out and setting: with `CC(C)(C)NC(=O)N1CCN(C(=O)c2cccc(COc3ccccc3C(N)=O)c2)CC1` [Compound 27] the figure was under 1000 nM; with `NC(=O)c1ccccc1OCc1cccc(C(=O)N2CCN(C(=O)Nc3ccccc3F)CC2)c1` [Compound 28], under 500 nM.
On to `NC(=O)c1ccccc1OCc1cccc(C(=O)N2CCN(C(=O)Nc3ccc(C(F)(F)F)cc3)CC2)c1` [Compound 29], for which the IC50 was under 100 nM.
Still for that read-out and setting: with `NC(=O)c1ccccc1OCc1cccc(C(=O)N2CCN(C(=O)Nc3cccc(F)c3)CC2)c1` [Compound 30] the figure was under 500 nM; with `COc1ccccc1NC(=O)N1CCN(C(=O)c2cccc(COc3ccccc3C(N)=O)c2)CC1` [Compound 31], under 500 nM; with `CCCCCCCCNC(=O)N1CCN(C(=O)c2cccc(COc3ccccc3C(N)=O)c2)CC1` [Compound 32], under 500 nM.
Still for that read-out and setting: the result for `NC(=O)c1ccccc1OCc1cccc(C(=O)N2CCN(C(=O)Nc3cc(C(F)(F)F)cc(C(F)(F)F)c3)CC2)c1` [Compound 33] reads under 500 nM.
As to `NC(=O)c1ccccc1OCc1cccc(C(=O)N2CCN(S(=O)(=O)c3ccccc3)CC2)c1` [Compound 36], the IC50 is under 1000 nM.
As for `NC(=O)c1ccccc1OCc1cccc(C(=O)N2CCN(C(=O)c3ccccc3)CC2)c1` [Compound 45], the IC50 is under 500 nM.
Turning to `NC(=O)c1ccccc1OCc1cccc(C(=O)N2CCN(C(=O)C3CCCC3)CC2)c1` [Compound 46], the IC50 was under 500 nM.
On to `CC(=O)N1CCN(C(=O)c2cccc(COc3ccccc3C(N)=O)c2)CC1` [Compound 47], for which the IC50 is under 1000 nM.
On the same count and under the same terms, the result for `NC(=O)c1ccccc1OCc1cccc(C(=O)N2CCN(C(=O)c3cccc(F)c3)CC2)c1` [Compound 48] reads under 500 nM; that for `NC(=O)c1ccccc1OCc1cccc(C(=O)N2CCN(C(=O)C3CC3)CC2)c1` [Compound 49], under 1000 nM; that for `NC(=O)c1ccccc1OCc1cccc(C(=O)N2CCN(C(=O)N3CCOCC3)CC2)c1` [Compound 50], under 500 nM.
Still for that read-out and setting: with `NC(=O)c1ccccc1OCc1cccc(C(=O)N2CCN(C(=O)c3ccc(F)cc3F)CC2)c1` [Compound 51] the figure was under 500 nM; with `NC(=O)c1ccccc1OCc1cccc(C(=O)N2CCN(C(=O)C3CCCCC3)CC2)c1` [Compound 52], under 500 nM; with `CC(Oc1ccccc1)C(=O)N1CCN(C(=O)c2cccc(COc3ccccc3C(N)=O)c2)CC1` (centres unmarked) [Compound 53], under 100 nM.
Same read-out and setting: the result for `NC(=O)c1ccccc1OCc1cccc(C(=O)N2CCN(C(=O)c3ccc(OC(F)(F)F)cc3)CC2)c1` [Compound 54] reads under 500 nM; that for `NC(=O)c1ccccc1OCc1cccc(C(=O)N2CCN(C(=O)COCc3ccccc3)CC2)c1` [Compound 55], under 500 nM.
On to `NC(=O)c1ccccc1OCc1cccc(C(=O)N2CCN(C(=O)c3ccno3)CC2)c1` [Compound 56], for which the IC50 was under 500 nM.
Still for that read-out and setting: the result for `Cc1cccc(CCC(=O)N2CCN(C(=O)c3cccc(COc4ccccc4C(N)=O)c3)CC2)c1` [Compound 57] reads under 500 nM.
The same measure, in the same setting: with `COc1cccc(CC(=O)N2CCN(C(=O)c3cccc(COc4ccccc4C(N)=O)c3)CC2)c1OC` [Compound 58] the figure was under 500 nM; with `Cn1cc(C(=O)N2CCN(C(=O)c3cccc(COc4ccccc4C(N)=O)c3)CC2)c(C(F)(F)F)n1` [Compound 59], under 500 nM; with `Cc1nn(C)c(Oc2cccc(C(F)(F)F)c2)c1C(=O)N1CCN(C(=O)c2cccc(COc3ccccc3C(N)=O)c2)CC1` [Compound 60], under 1000 nM.
Consider `Cn1nc(C(F)(F)F)c2cc(C(=O)N3CCN(C(=O)c4cccc(COc5ccccc5C(N)=O)c4)CC3)sc21` [Compound 61], for which the IC50 was under 500 nM.
On the same count and under the same terms, with `NC(=O)c1ccccc1OCc1cccc(C(=O)N2CCN(C(=O)c3ccccc3F)CC2)c1` [Compound 62] the figure was under 500 nM; with `NC(=O)c1ccccc1OCc1ccc(F)c(C(=O)N2CCN(C(=O)Nc3ccccc3F)CC2)c1` [Compound 72], under 100 nM.
Turning to `COc1ccccc1NC(=O)N1CCN(C(=O)c2cc(COc3ccccc3C(N)=O)ccc2F)CC1` [Compound 73], the IC50 was under 100 nM.
Regarding `Cc1cc(C)cc(NC(=O)N2CCN(C(=O)c3cc(COc4ccccc4C(N)=O)ccc3F)CC2)c1` [Compound 74], the IC50 is under 100 nM.
Same read-out and setting: with `NC(=O)c1ccccc1OCc1ccc(F)c(C(=O)N2CCN(S(=O)(=O)Cc3ccccc3)CC2)c1` [Compound 75] the figure was under 100 nM; with `Cc1cccc(CCC(=O)N2CCN(C(=O)c3cc(COc4ccccc4C(N)=O)ccc3F)CC2)c1` [Compound 78], under 100 nM.
Still for that read-out and setting: with `CN(C)CC(=O)N1CCN(C(=O)c2cc(COc3ccccc3C(N)=O)ccc2F)CC1` [Compound 81] the figure was under 500 nM.
Still for that read-out and setting: with `CC(Oc1ccccc1)C(=O)N1CCN(C(=O)c2cccc(COc3c(F)cccc3C(N)=O)c2)CC1` (centres unmarked) [Compound 116] the figure was under 1000 nM.
Consider `NC(=O)c1ccccc1OCCc1cccc(C(=O)N2CCN(C(=O)Nc3ccccc3F)CC2)c1` [Compound 141], for which the IC50 was under 100 nM.
With `NC(=O)c1ccccc1OCCc1cccc(C(=O)N2CCN(S(=O)(=O)c3ccc(Cl)cc3)CC2)c1` [Compound 152], the IC50 was under 500 nM.
Still for that read-out and setting: the result for `NC(=O)c1ccccc1OCCc1cccc(C(=O)N2CCN(S(=O)(=O)c3cccc(-c4cnco4)c3)CC2)c1` [Compound 159] reads under 500 nM; that for `NC(=O)c1ccccc1OCCc1cccc(C(=O)N2CCN(S(=O)(=O)c3cc4ccccc4s3)CC2)c1` [Compound 160], under 500 nM.
Same read-out and setting: the result for `NC(=O)c1ccccc1OCCc1cccc(C(=O)N2CCN(S(=O)(=O)c3csc4ccccc34)CC2)c1` [Compound 161] reads under 500 nM.
Same read-out and setting: the result for `Cc1cccc(CCC(=O)N2CCN(C(=O)c3cccc(CCOc4ccccc4C(N)=O)c3)CC2)c1` [Compound 164] reads under 100 nM.
In the case of `NC(=O)c1ccccc1OCCc1cccc(C(=O)N2CCN(C(=O)C3CCCCC3)CC2)c1` [Compound 166], the IC50 is under 500 nM.
For the compound `CC(Oc1ccccc1)C(=O)N1CCN(C(=O)c2cccc(CCOc3ccccc3C(N)=O)c2)CC1` (centres unmarked) [Compound 167], the IC50 was under 500 nM.
The same measure, in the same setting: the result for `NC(=O)c1ccccc1OCCc1ccc(F)c(C(=O)N2CCN(C(=O)NCCc3ccccc3)CC2)c1` [Compound 184] reads under 500 nM; that for `Cc1cccc(CCC(=O)N2CCN(C(=O)c3cc(CCOc4ccccc4C(N)=O)ccc3F)CC2)c1` [Compound 185], under 100 nM.
Turning to `NC(=O)c1ccccc1OCCc1ccc(F)c(C(=O)N2CCN(C(=O)C3CCCCC3)CC2)c1` [Compound 187], the IC50 was under 100 nM.
On the same count and under the same terms, with `NC(=O)c1ccccc1OCCc1ccc(F)c(C(=O)N2CCN(C(=O)C3CCC3)CC2)c1` [Compound 189] the figure was under 500 nM; with `CC(=O)N1CCC(C(=O)N2CCN(C(=O)c3cc(CCOc4ccccc4C(N)=O)ccc3F)CC2)CC1` [Compound 191], under 500 nM; with `Cc1ccc(NC(=O)N2CCN(C(=O)c3cc(COc4ccc(F)cc4C(N)=O)ccc3F)CC2)cc1` [Compound 199], under 100 nM.
On the same count and under the same terms, with `COc1cccc(NC(=O)N2CCN(C(=O)c3cc(COc4ccc(F)cc4C(N)=O)ccc3F)CC2)c1` [Compound 201] the figure was under 100 nM; with `NC(=O)c1cc(F)ccc1OCc1ccc(F)c(C(=O)N2CCN(C(=O)NC3CCCCC3)CC2)c1` [Compound 202], under 100 nM.
On the same count and under the same terms, with `Cc1cccc(NC(=O)N2CCN(C(=O)c3cc(COc4ccc(F)cc4C(N)=O)ccc3F)CC2)c1` [Compound 203] the figure was under 100 nM.
With `NC(=O)c1cc(F)ccc1OCc1ccc(F)c(C(=O)N2CCN(C(=O)Nc3cccc(C(F)(F)F)c3)CC2)c1` [Compound 204], the concentration for half-maximal inhibition (IC50) is under 100 nM.
Same read-out and setting: with `NC(=O)c1cc(F)ccc1OCc1ccc(F)c(C(=O)N2CCN(C(=O)Nc3cccc(F)c3)CC2)c1` [Compound 205] the figure was under 100 nM.

The IC50 is the concentration that gives 50% inhibition.
